The structures appear in SMILES notation. Among all 39,000 compounds or so, about 220 (0.56%) showed activity. Some of the results follow.

These results are taken from the supplement of paper PMC9446081.
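Also: static incubation at 37 °C against the wild-type strain, values averaged over two biological replicates.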

The subject of this assay is Escherichia coli K-12 BW25113. Put plainly: relative growth (OD600 normalised to plate interquartile mean) (fraction); higher = less growth inhibition, active = 0.2 or less. Particulars: 50 µM; LB; incubation time: overnight (16-24 h).
For the molecule `CCOC(=O)c1cncc(C(=O)O)c1`, the relative growth was inactive: 0.945. Consider `C[C@@H]1CN([C@H](C)CO)C(=O)c2cccc(NC(=O)Nc3ccc(F)cc3)c2O[C@@H]1CN(C)C(=O)Nc1cccc2ccccc12`, for which the relative growth is inactive: 0.991. Consider `C[C@@H]1CCCCO[C@@H](CN(C)Cc2ccc(C(=O)O)cc2)[C@@H](C)CN([C@H](C)CO)C(=O)c2cc(NS(=O)(=O)c3ccccc3)ccc2O1`, for which the relative growth was inactive: 0.996. As to `CO[C@H](CN(C)C(=O)C1CCOCC1)[C@@H](C)CN(C(=O)Nc1ccc(C(F)(F)F)cc1)[C@@H](C)CO`, the relative growth was inactive: 0.918. With `C[N+](C)(C)C[C@@H](O)CC(=O)O`, the relative growth is inactive: 0.99. For `N[C@H]1CC[C@H](CCn2cc(C3CCCCC3)nn2)O[C@@H]1CO`, the relative growth is inactive: 1.02.

With `C[C@@H]1CN([C@H](C)CO)S(=O)(=O)c2ccc(-c3ccc(C(=O)N(C)C)cc3)cc2O[C@H]1CN(C)C(=O)Cc1ccccn1`, the relative growth was inactive: 1.01. Turning to `CN1CCc2cccc3c2C1Cc1ccc(O)c(O)c1-3.Cl` (configuration not stated), the relative growth was inactive: 1.05. Consider `C[C@@H]1CN([C@H](C)CO)C(=O)c2cc(NC(=O)Nc3ccc(F)cc3)ccc2O[C@H]1CN(C)C(=O)Nc1ccc(C(F)(F)F)cc1`, for which the relative growth was inactive: 0.97. As to `O=C(C[C@@H]1CC[C@@H]2[C@H](COC[C@H](O)CN2S(=O)(=O)c2ccccc2)O1)N[C@@H]1CCN(Cc2ccccc2)C1`, the relative growth was inactive: 0.989. Consider `Cc1noc(C)c1S(=O)(=O)N(C)C[C@@H]1OCCCC[C@@H](C)Oc2ccc(NC(=O)CCCCCC(=O)Nc3ccccc3N)cc2C(=O)N([C@H](C)CO)C[C@@H]1C`, for which the relative growth was inactive: 1. Turning to `Cc1noc(C)c1S(=O)(=O)N(C)C[C@@H]1OCc2cn(nn2)CCCC(=O)N([C@@H](C)CO)C[C@@H]1C`, the relative growth is inactive: 0.983. Turning to `Cc1ccc(S(=O)(=O)Nc2ccc3c(c2)C(=O)N([C@@H](C)CO)C[C@H](C)[C@H](CN(C)C(=O)Nc2c(C)noc2C)OCCCC[C@@H](C)O3)cc1`, the relative growth is inactive: 0.975. As for `C[C@@H]1CN([C@H](C)CO)C(=O)c2cc(NC(=O)CCN3CCOCC3)ccc2O[C@@H]1CN(C)S(=O)(=O)c1ccc(F)cc1`, the relative growth was inactive: 0.992. `CNC(=O)[C@H]1C[C@@H]2CN(Cc3cnn(C)c3)C[C@@H]2N1C`: the relative growth was inactive: 0.999. Take `C[C@@H]1CCCCO[C@H](CN(C)C(=O)c2ccccc2)[C@H](C)CN([C@H](C)CO)C(=O)c2cc(NS(=O)(=O)c3ccc(Cl)cc3)ccc2O1`: the relative growth is inactive: 0.99. Regarding `C[C@@H]1CN([C@H](C)CO)C(=O)c2cc(NC(=O)C3CCCCC3)ccc2O[C@@H](C)CCCCO[C@@H]1CN(C)Cc1ccc2c(c1)OCO2`, the relative growth is inactive: 1.01. For the molecule `Cc1noc(C)c1S(=O)(=O)Nc1ccc2c(c1)C(=O)N([C@@H](C)CO)C[C@H](C)[C@H](CN(C)Cc1ccc(C(F)(F)F)cc1)OCCCC[C@H](C)O2`, the relative growth is inactive: 0.993. In the case of `C[C@@H]1CN([C@@H](C)CO)C(=O)c2cc(NC(=O)NC3CCCCC3)ccc2O[C@H]1CN(C)Cc1ccc(-c2ccccc2)cc1`, the relative growth was inactive: 1.02. In the case of `C[C@@H]1CN([C@@H](C)CO)C(=O)c2cc(NC(=O)Nc3ccc(C(F)(F)F)cc3)ccc2O[C@H]1CN(C)Cc1ccc(C(F)(F)F)cc1`, the relative growth is inactive: 1.02. With `C[C@@H]1CN([C@H](C)CO)C(=O)c2cccc(NS(=O)(=O)c3ccc(F)cc3)c2O[C@@H]1CN(C)S(=O)(=O)c1ccc(F)cc1`, the relative growth is inactive: 0.959. The same measure for `CC(C)C(=O)Nc1cccc(Cl)c1`: inactive: 1. Take `C/C=C1\[C@H](O[C@@H]2O[C@H](CO)[C@@H](O)[C@H](O)[C@H]2O)OC=C(C(=O)OC)[C@H]1CC(=O)OC`: the relative growth was inactive: 0.847. `CN1CCN(C(=O)C[C@H]2CC[C@@H]3[C@H](COc4ccc(NC(=O)C5CCOCC5)cc4C(=O)N3C)O2)CC1`: the relative growth was inactive: 1.04. `COc1ccc(CN(C)C[C@H]2OCCCC[C@@H](C)Oc3ccc(NC(=O)Nc4ccccc4)cc3C(=O)N([C@H](C)CO)C[C@H]2C)cc1`: the relative growth was inactive: 1.01.

As to `C[C@@H]1CN([C@@H](C)CO[Si](C)(C)C(C)(C)C)C(=O)c2cc(NC(=O)Nc3ccccc3)ccc2O[C@@H](C)CCCCO[C@H]1CN(C)S(=O)(=O)c1ccc(F)cc1`, the relative growth is inactive: 0.998.

Take `C[C@H](CO)N1C[C@H](C)[C@@H](CN(C)C(=O)c2ccccc2)OCCCC[C@H](C)Oc2ccc(NC(=O)Nc3ccc4c(c3)OCO4)cc2C1=O`: the relative growth is inactive: 0.962. As to `C[C@]12C[C@]3(O)O[C@@H](O1)[C@]1(COC(=O)c4ccccc4)[C@H]3C[C@@]12O[C@@H]1O[C@H](CO)[C@@H](O)[C@H](O)[C@H]1O`, the relative growth is inactive: 1. The same measure for `C[C@H](CO)N1C[C@H](C)[C@H](CN(C)S(=O)(=O)c2cccs2)OCCCC[C@H](C)Oc2ccc(NC(=O)NC3CCCCC3)cc2C1=O`: inactive: 1.02. Turning to `CC1(C)SC2C(NC(=O)Cc3ccccc3)C(=O)N2C1C(=O)[O-].[K+]` (configuration not stated), the relative growth was inactive: 0.576. Regarding `O=C(N/N=C/[C@H](O)[C@@H](O)[C@H](O)CO)c1ccccc1O`, the relative growth was inactive: 0.986. On to `COc1ccc(NC(=O)Nc2cccc3c2O[C@@H](CN(C)C(=O)Nc2ccc(C(F)(F)F)cc2)[C@@H](C)CN([C@H](C)CO)C3=O)cc1`, for which the relative growth is inactive: 0.941. As for `C[C@@H]1CCCCO[C@@H](CN(C)Cc2ccc(Cl)c(Cl)c2)[C@@H](C)CN([C@@H](C)CO)C(=O)c2cc(NC(=O)Nc3ccc(F)cc3)ccc2O1`, the relative growth is inactive: 1.02. On to `CC(C)NC(=O)N(C)C[C@H]1OCc2cnnn2CCCC(=O)N([C@@H](C)CO)C[C@H]1C`, for which the relative growth is inactive: 1.01. The same measure for `C[C@@H]1CN([C@H](C)CO)C(=O)c2cc(NC(=O)Nc3ccccc3)ccc2O[C@@H](C)CCCCO[C@H]1CN(C)Cc1ccc2c(c1)OCO2`: inactive: 0.962; for `C[C@@H]1CN([C@@H](C)CO)C(=O)c2cc(NC(=O)Cc3ccccc3)ccc2O[C@@H](C)CCCCO[C@H]1CN(C)C(=O)Nc1cccc2ccccc12`: inactive: 1.03; for `COCC#Cc1ccc2c(c1)O[C@H](CN(C)Cc1ccc3c(c1)OCO3)[C@@H](C)CN([C@H](C)CO)S2(=O)=O`: inactive: 1.03.
